Data on 44 sequences can be found in the supplement of paper PMC11417369.

± gives the standard deviation of the averaged measurements. This is one part of the list.

In this experiment the test system is PfAP2-I AP2 domain 3 (GST-tagged). Kind of experiment: gcPBM binding intensity (ln(normalized median fluorescence intensity)); higher = stronger DNA binding. An outline of the steps:
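GST-tagged P. falciparum DNA-binding domains produced in E. coli were incubated for 1 h on an Agilent 4 × 180k array of primer-extended double-stranded 36-bp intergenic genomic probes with negative controls. Binding intensity is the highest Masliner-normalised natural-log median intensity across replicate spots of either probe orientation, with bound protein detected by Alexa488 anti-GST antibody at 488 nm.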
Take TTTTTGTTAATAAGTATGCACTATCTCATTTTTGTA: the “gcPBM binding intensity (ln)” value came out at 9.29 ± 0.2. Consider “CTATACTATGAAAAGTGTACGAATAGCTAGCTATTT [XGTACX_site5927]”, for which the “gcPBM binding intensity (ln)” value is 7.57 ± 0.73. As to “TAGTAGTATTCATCCAGTACATATAAATGTATAATA [XGTACX_site7552]”, the “gcPBM binding intensity (ln)” value amounted to 7.64 ± 0.38.

Take “GAGCATTACACATATACACACATATAAATAAACATA [CACACA_site7315]”: the “gcPBM binding intensity (ln)” value came to 8.15 ± 0.34. For the sequence “GAGAAATTTATACATACACACATATAAATATTATAG [CACACA_site7819]”, the “gcPBM binding intensity (ln)” value was found to be 7.64 ± 0.46. Take “CTTTGCATTACGAACATACACACAGAATAACTGAAA [CACACA_site3024]”: the “gcPBM binding intensity (ln)” value was found to be 8.43 ± 0.33. Turning to “ATATATTTTTTTTATACATGCAATGCATTTACGTTG [TGCATGCA_site565]”, the “gcPBM binding intensity (ln)” value was 7.98 ± 0.99. Turning to “TTTTTTTTTTTTTGAACACACATTATTAATTTTTAT [CACACA_site308]”, the “gcPBM binding intensity (ln)” value is 8.13 ± 0.73. “TTTTTTATATATTAGGAATTTATAAAATTAGAAGGT [GTGCAC_negctrl_site617]”: the “gcPBM binding intensity (ln)” value turned out to be 8.15 ± 0.21. Take “AACCAGTTGATGTGTACACATATAGTAATAATTTTA [CACACA_site5564]”: the “gcPBM binding intensity (ln)” value came to 8.04 ± 0.43.

As to “GTATTAATTTTAAGGTGTACGCAAAAAATTTAATTT [XGTACX_site718]”, the “gcPBM binding intensity (ln)” value worked out at 8.03 ± 0.29. As for “ACGATTCAAAGGGAATATAAAATATTATTATCTATA [CACACA_negctrl_site1739]”, the “gcPBM binding intensity (ln)” value turned out to be 7.28 ± 0.47. Take “AACCAATATGCGTATACACACATAAATATAAATATA [CACACA_site3780]”: the “gcPBM binding intensity (ln)” value is 7.79 ± 0.38. “AATAGAATAATCCTTACACACACACCCACACGAATA [CACACA_site8053]”: the “gcPBM binding intensity (ln)” value amounted to 8.275 ± 0.007.

Consider “TATATTAACAAAATGGTGCAATAATTTCTATATTGT [GTGCAC_site9430]”, for which the “gcPBM binding intensity (ln)” value stood at 11.2 ± 0.54. In the case of “TGTGTAAGCACATACAAACACACAACCTTATTTTTA [CACACA_site2187]”, the “gcPBM binding intensity (ln)” value amounted to 8.4 ± 0.071.

Take “TTATTATATTAAAAGAGGACACATTTATTTTTTTTT [XGTACX_site1241]”: the “gcPBM binding intensity (ln)” value was found to be 7.46 ± 0.39.

Turning to “AAAAAAAAAAAAAAAAAAAAAAAAAAAAATAAAAAA [CACACA_negctrl_site59]”, the “gcPBM binding intensity (ln)” value turned out to be 9.86. As to “AAAATATTTAATAGAAGTACACATGTATATATACAT [XGTACX_site8942]”, the “gcPBM binding intensity (ln)” value worked out at 7.76 ± 0.47. With “AGATCATAATATTATACACACATTATATATCTGTAA [CACACA_site4925]”, the “gcPBM binding intensity (ln)” value stood at 7.8 ± 0.59.

“TTTTGAATATATTAAATAAATTAAAAATCTACAAAC [GTGCAC_negctrl_site622]”: the “gcPBM binding intensity (ln)” value came to 7.6 ± 0.59. On to “TAATAAATTCAAAACATAAAAAGGAAAAAAAAAAAA [CACACA_negctrl_site1330]”, for which the “gcPBM binding intensity (ln)” value amounted to 8.09 ± 1. In the case of “TTATTATATACAAAATGTACACAGAATAATTTGAAT [XGTACX_site2314]”, the “gcPBM binding intensity (ln)” value worked out at 7.84 ± 0.43. For “ATATATATATATATATGTACATAATATATTATATAT [XGTACX_site924]”, the “gcPBM binding intensity (ln)” value is 9.24 ± 0.67.

With “TTTTTTTTTTTTTTGGTGCAGTTCACATATTATATA [GTGCAC_site9996]”, the “gcPBM binding intensity (ln)” value is 10.2 ± 0.78. In the case of “ATTTTTTTTTAATGCAATATATTTTGAAAATTTTAT [CACACA_negctrl_site753]”, the “gcPBM binding intensity (ln)” value stood at 8.62 ± 0.27. Then “TTTTTTTTTTTTTTTACACACTTTATTCAAACAACT [CACACA_site4104]”, with 8.2 ± 0.67; and “TAATATCTTGAGTCATCACACATTGATTAATGAATC [CACACA_site5735]”, with 7.27 ± 0.54; and “TGAATACAGATATTCACACAAATAGTTTTGATATAT [CACACA_site5527]”, with 7.32 ± 0.68. As to “AAAAAAATATATAATAGTACATATATAGGAATATAT [XGTACX_site4591]”, the “gcPBM binding intensity (ln)” value was determined as 7.58 ± 0.6. For the sequence “CTTTTTTTTTTTTTTGCACACACATATATAAATATA [CACACA_site3950]”, the “gcPBM binding intensity (ln)” value was found to be 9.74 ± 0.042. “AGTGGAAATTTTATTTGTACATAAATATTTACATAC [XGTACX_site633]”: the “gcPBM binding intensity (ln)” value amounted to 7.92 ± 0.55. Then “CTTTCTCTCAAAATGACATGCAATTTGTTTCTTTTT [TGCATGCA_site169]”, with 7.63 ± 0.93; and “ATATATATATATATTTGTACTTAATTGATTTTACTT [XGTACX_site2663]”, with 9.27 ± 0.22; and “ATGCGTTTAGCAAAAAGTACATATATATATAATATT [XGTACX_site1928]”, with 7.82 ± 0.49. On to “TTGAAATACTTTATTTGTACATATAGCAAAGTGTAT [XGTACX_site8782]”, for which the “gcPBM binding intensity (ln)” value turned out to be 7.91 ± 0.52. Then “ATTTTTTCTAGACATGCATGTGAAATTTACTTTTTT [TGCATGCA_site305]”, with 7.59 ± 0.7; and “ATTATTGATTTATAAACACACACTCGAAGATGTTTA [CACACA_site8294]”, with 7.58 ± 0.53. Then “ACATATTGTAGATATTGTACATATTGTGTATATATT [XGTACX_site7620]”, with 7.72 ± 0.47. Then “AATATGGAATGAAATAACAATCGGGAGTATATTACC [CACACA_negctrl_site93]”, with 7.97 ± 0.6; and “TATATATATGTTCTTACACACACGAATATATATATG [CACACA_site3304]”, with 7.98 ± 0.55. Regarding “TTTTTTTTTTTTTTTTTTTTTTTTTCATATTAATAT [GTGCAC_negctrl_site351]”, the “gcPBM binding intensity (ln)” value is 8.21 ± 0.87. Then “TTGGCATACAGACACACACACACACCCCCACATATA [CACACA_site590]”, with 8.99 ± 0.23.

In the case of “ATTGATACATCCAATACACACTACATATTATGATGT [CACACA_site6965]”, the “gcPBM binding intensity (ln)” value was determined as 7.72 ± 0.56.
